Assay results: the supplement of paper PMC4967469

Compound: CCCCCCCCCCCC1=C(O)C(=O)C=C(O)C1=O [Embelin]
Test: Viability of human cancer cell lines after 72 h of drug (GDSC screen)
Settings: top dose 32 µM; top dose inferred
Method: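 Human cancer cell lines in 384-well plates, medium with 10% serum, drug for 72 h over a 256-fold dose range (nine 2-fold or five 4-fold steps up to the top dose). Adherent lines were fixed and stained with the nucleic acid dye Syto60, suspension lines read with resazurin; signal relative to control wells, capped at 0 and 100%. One two-parameter sigmoid per drug and line, fitted in a mixed model over all curves with the slope shared within a line.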

Row | Cell Line | AUC | IC50 [µM]
1 | BFTC-909 (kidney, adherent) | 0.791 | 14
2 | 786-0 (kidney, adherent) | 0.749 | 9.66
3 | KCL-22 (chronic myeloid leukaemia, suspension) | 0.714 | 7.14
4 | MC-IXC (neuroblastoma, adherent) | 0.702 | 6.2
5 | HUTU-80 (digestive system, adherent) | 0.539 | 2.5
6 | CAL-72 (osteosarcoma, adherent) | 0.763 | 13.6
7 | KYSE-270 (oesophagus, adherent) | 0.673 | 5.58
8 | LS-513 (large intestine, adherent) | 0.906 | > 32
9 | SK-N-SH (neuroblastoma, adherent) | 0.612 | 4.05
10 | BICR22 (head and neck, adherent) | 0.761 | 12.9
11 | LoVo (large intestine, adherent) | 0.632 | 4.66
12 | NCI-H524 (small cell lung carcinoma, suspension) | 0.963 | > 32
13 | DU-145 (prostate, adherent) | 0.747 | 11.3
14 | HCC1187 (breast, suspension) | 0.904 | > 32
15 | TGBC1TKB (biliary tract, adherent) | 0.763 | 11.5
16 | SW1990 (pancreas, adherent) | 0.699 | 8.1
17 | KYSE-140 (oesophagus, adherent) | 0.671 | 6.42
18 | SUP-T1 (T-cell lymphoblastic leukaemia, suspension) | 0.687 | 6.33
19 | Hs939-T (melanoma, adherent) | 0.65 | 5.43
20 | VCaP (prostate, adherent) | 0.827 | 20.6
21 | MRK-nu-1 (breast, suspension) | 0.799 | 13.9
22 | ES7 (Ewing sarcoma, adherent) | 0.677 | 6.33
23 | PA-TU-8988T (pancreas, adherent) | 0.621 | 4.33
24 | KYSE-220 (oesophagus, adherent) | 0.885 | > 32
25 | NCI-H1417 (small cell lung carcinoma, suspension) | 0.855 | > 32
26 | PA-1 (ovary, adherent) | 0.595 | 3.43

Row | Cell Line | AUC | IC50 [µM]
27 | ML-2 (acute myeloid leukaemia, suspension) | 0.777 | 11.4
28 | MLMA (hairy cell leukaemia, semi-adherent) | 0.927 | > 32
29 | NCI-H2087 (lung adenocarcinoma, semi-adherent) | 0.669 | 6.15
30 | H2369 (mesothelioma, adherent) | 0.815 | 18.3
31 | OVCAR-4 (ovary, adherent) | 0.763 | 17.4
32 | LU-139 (small cell lung carcinoma, suspension) | 0.849 | > 32
33 | ME-1 (acute myeloid leukaemia, suspension) | 0.84 | 24.4
34 | NCI-H2135 (non-small cell lung carcinoma, adherent) | 0.91 | > 32
35 | NCI-H1648 (lung adenocarcinoma, adherent) | 0.752 | 11.2
36 | IST-MEL1 (melanoma, adherent) | 0.699 | 8.18
37 | HPAC (pancreas, adherent) | 0.654 | 6.41
38 | COLO-320-HSR (large intestine, suspension) | 0.842 | 18.3
39 | IMR-5 (neuroblastoma, adherent) | 0.893 | 27.4
40 | A101D (melanoma, adherent) | 0.643 | 5.48
41 | IM-95 (stomach, adherent) | 0.715 | 8.53
42 | KP-3 (pancreas, adherent) | 0.865 | > 32
43 | UACC-257 (melanoma, adherent) | 0.87 | > 32
44 | HT-115 (large intestine, adherent) | 0.948 | > 32
45 | HTC-C3 (thyroid, adherent) | 0.73 | 9.88
46 | NCI-H187 (small cell lung carcinoma, suspension) | 0.944 | > 32
47 | LB2518-MEL (melanoma, adherent) | 0.771 | 12.9
48 | NCI-H2452 (mesothelioma, adherent) | 0.943 | > 32
49 | SKN-3 (head and neck, adherent) | 0.846 | 29.9
50 | TE-5 (oesophagus, adherent) | 0.735 | 10.6
51 | MDA-MB-453 (breast, adherent) | 0.974 | > 32
52 | GAK (melanoma, adherent) | 0.733 | 8.86

Row | Cell Line | AUC | IC50 [µM]
53 | SU-DHL-5 (B-cell lymphoma, suspension) | 0.522 | 2.27
54 | DEL (lymphoid neoplasm, suspension) | 0.776 | 10.1
55 | Becker (glioma, adherent) | 0.776 | 14.4
56 | LK-2 (lung squamous cell carcinoma, adherent) | 0.729 | 8.59
57 | COR-L95 (small cell lung carcinoma, adherent) | 0.967 | > 32
58 | SISO (cervix, adherent) | 0.769 | 11.6
59 | NCI-H2342 (lung adenocarcinoma, adherent) | 0.689 | 7.21
60 | NCI-H460 (large cell lung carcinoma, adherent) | 0.671 | 5.69
61 | LB373-MEL-D (melanoma, adherent) | 0.824 | 18.5
62 | ES-2 (ovary, adherent) | 0.918 | > 32
63 | OVKATE (ovary, adherent) | 0.835 | > 32
64 | NB12 (neuroblastoma, adherent) | 0.709 | 9.66
65 | G-292 Clone A141B1 (osteosarcoma, adherent) | 0.86 | > 32
66 | LAN-6 (neuroblastoma, adherent) | 0.936 | > 32
67 | HCC-56 (large intestine, adherent) | 0.898 | > 32
68 | NCI-H510A (small cell lung carcinoma, semi-adherent) | 0.984 | > 32
69 | SK-CO-1 (large intestine, adherent) | 0.811 | 15.8
70 | PL18 (pancreas, adherent) | 0.693 | 6.94
71 | NCI-H2227 (small cell lung carcinoma, semi-adherent) | 0.984 | > 32
72 | HCC1569 (breast, adherent) | 0.738 | 12.2
73 | WM793B (melanoma, adherent) | 0.696 | 7.6
74 | WM35 (melanoma, adherent) | 0.594 | 3.63
75 | NAMALWA (Burkitt lymphoma, suspension) | 0.743 | 8.64
76 | NCI-H1651 (lung adenocarcinoma, adherent) | 0.669 | 6.16

IC50 is the fitted dose that halves viability relative to control wells, and lower means more sensitive; where the fit passes the top or lowest dose, that dose stands as a limit. AUC is the area under the same curve over the 256-fold range up to the top dose, as a fraction: 1 means no effect, lower means more sensitive. Any top dose called inferred is not printed in the source and was worked back from the curve model.
